Blank lines part the entries; values can stand above or below the binder they belong to.
Target: calmodulin immobilized on agarose beads (CaM-agarose) (UniProt P62157)
Assay: pull-down

fold decrease of binding against wild-type channels: ~10 fold
B1: TRPV1Δ[…] mutant channel (receptor)
chain: not shown

fold decrease of binding against wild-type channels: ~10 fold
B2: TRPV1Δ205–222 mutant channel (receptor)
chain: not shown
